From the supplement of paper PMC8728848
Some of the results follow.

Columns and labels:
Assay in all cases: glycan array binding signal (z-score within array); higher = stronger binding
Conditions in all cases: glycan notation: IUPAC condensed, linker removed
[1] = target: Man(b1-4)GlcNAc
In short: (§1)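 Columns mapping to the same glycan were averaged after glycan names were converted to IUPAC-condensed notation. The data come from 3228 arrays in the Consortium for Functional Glycomics database, limited to those with an available protein sequence. Binding is reported as a within-array Z-score averaged across arrays of one protein sequence and across linkers.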

[2] = target: MurNAc(b1-4)GlcNAc
In short: as §1

[3] = target: Neu5Ac(a2-3)Gal
In short: as §1

[4] = target: Neu5Ac(a2-3)Gal(b1-3)GalNAc
In short: as §1

[5] = target: Neu5Ac(a2-3)Gal(b1-3)GalNAc(b1-3)Gal(a1-4)Gal(b1-4)Glc
In short: as §1

[6] = target: Neu5Ac(a2-3)Gal(b1-3)GalNAc(b1-3)Gal(b1-4)GlcNAc
In short: as §1

[7] = target: Neu5Ac(a2-3)Gal(b1-3)GalNAc(b1-4)[Neu5Ac(a2-3)]Gal(b1-4)Glc
In short: as §1

[8] = target: Neu5Ac(a2-3)Gal(b1-3)GalNAc(b1-4)[Neu5Ac(a2-8)Neu5Ac(a2-3)]Gal(b1-4)Glc
In short: as §1

[9] = target: Neu5Ac(a2-3)Gal(b1-3)GalNAc6S
In short: as §1

[10] = target: Neu5Ac(a2-3)Gal(b1-3)GlcNAc
In short: as §1

[11] = target: Neu5Ac(a2-3)Gal(b1-3)GlcNAc(b1-2)Man
In short: as §1

[12] = target: Neu5Ac(a2-3)Gal(b1-3)GlcNAc(b1-2)Man(a1-3)[GlcNAc(b1-4)][Neu5Ac(a2-3)Gal(b1-3)GlcNAc(b1-2)Man(a1-6)]Man(b1-4)GlcNAc(b1-4)GlcNAc
In short: as §1

[13] = target: Neu5Ac(a2-3)Gal(b1-3)GlcNAc(b1-2)Man(a1-3)[Neu5Ac(a2-3)Gal(b1-3)GlcNAc(b1-2)Man(a1-6)]Man(b1-4)GlcNAc(b1-4)GlcNAc
In short: as §1

[14] = target: Neu5Ac(a2-3)Gal(b1-3)GlcNAc(b1-3)Gal(b1-3)GlcNAc
In short: as §1

[15] = target: Neu5Ac(a2-3)Gal(b1-3)GlcNAc(b1-3)Gal(b1-4)GlcNAc
In short: as §1

[16] = target: Neu5Ac(a2-3)Gal(b1-3)GlcNAc(b1-3)GalNAc
In short: as §1

[17] = target: Neu5Ac(a2-3)Gal(b1-3)GlcNAc(b1-4)Gal(b1-4)Glc
In short: as §1

[18] = target: Neu5Ac(a2-3)Gal(b1-3)GlcNAc(b1-6)GalNAc
In short: as §1

[19] = target: Neu5Ac(a2-3)Gal(b1-3)GlcNAc6S
In short: as §1

[20] = target: Neu5Ac(a2-3)Gal(b1-3)[Fuc(a1-4)]GlcNAc
In short: as §1

[21] = target: Neu5Ac(a2-3)Gal(b1-3)[Fuc(a1-4)]GlcNAc(b1-3)Gal(b1-3)[Fuc(a1-4)]GlcNAc
In short: as §1

[22] = target: Neu5Ac(a2-3)Gal(b1-3)[Fuc(a1-4)]GlcNAc(b1-3)Gal(b1-4)[Fuc(a1-3)]GlcNAc
In short: as §1

[23] = target: Neu5Ac(a2-3)Gal(b1-3)[GlcNAc(b1-6)]GalNAc
In short: as §1

[24] = target: Neu5Ac(a2-3)Gal(b1-3)[Neu5Ac(a2-3)Gal(b1-4)]GlcNAc
In short: as §1

[25] = target: Neu5Ac(a2-3)Gal(b1-3)[Neu5Ac(a2-6)]GalNAc
In short: as §1

[26] = target: Neu5Ac(a2-3)Gal(b1-3)[Neu5Ac(a2-6)]GlcNAc(b1-3)[Fuc(a1-3)[Gal(b1-4)]GlcNAc(b1-6)]Gal(b1-4)Glc
In short: as §1

[27] = target: Neu5Ac(a2-3)Gal(b1-3)]Neu5Ac(a2-3)Gal(b1-4)]GlcNAc
In short: as §1

[28] = target: Neu5Ac(a2-3)Gal(b1-4)Glc
In short: as §1

[29] = target: Neu5Ac(a2-3)Gal(b1-4)GlcNAc
In short: as §1

[30] = target: Neu5Ac(a2-3)Gal(b1-4)GlcNAc(b1-2)Man
In short: as §1

[31] = target: Neu5Ac(a2-3)Gal(b1-4)GlcNAc(b1-2)Man(a1-3)[GlcNAc(b1-4)][Neu5Ac(a2-3)Gal(b1-4)GlcNAc(b1-2)Man(a1-6)]Man(b1-4)GlcNAc(b1-4)GlcNAc
In short: as §1

[32] = target: Neu5Ac(a2-3)Gal(b1-4)GlcNAc(b1-2)Man(a1-3)[Neu5Ac(a2-3)Gal(b1-4)GlcNAc(b1-2)Man(a1-6)]Man(b1-4)GlcNAc(b1-4)GlcNAc
In short: as §1

[33] = target: Neu5Ac(a2-3)Gal(b1-4)GlcNAc(b1-2)Man(a1-3)[Neu5Ac(a2-3)Gal(b1-4)GlcNAc(b1-2)Man(a1-6)]Man(b1-4)GlcNAc(b1-4)[Fuc(a1-6)]GlcNAc
In short: as §1

[34] = target: Neu5Ac(a2-3)Gal(b1-4)GlcNAc(b1-2)Man(a1-3)[Neu5Ac(a2-6)Gal(b1-4)GlcNAc(b1-2)Man(a1-6)]Man(b1-4)GlcNAc(b1-4)GlcNAc
In short: as §1

[35] = target: Neu5Ac(a2-3)Gal(b1-4)GlcNAc(b1-2)[Neu5Ac(a2-3)Gal(b1-4)GlcNAc(b1-4)]Man(a1-3)[GlcNAc(b1-4)][Neu5Ac(a2-3)Gal(b1-4)GlcNAc(b1-2)[Neu5Ac(a2-3)Gal(b1-4)GlcNAc(b1-6)]Man(a1-6)]Man(b1-4)GlcNAc(b1-4)GlcNAc
In short: as §1

[36] = target: Neu5Ac(a2-3)Gal(b1-4)GlcNAc(b1-2)[Neu5Ac(a2-3)Gal(b1-4)GlcNAc(b1-4)]Man(a1-3)[GlcNAc(b1-4)][Neu5Ac(a2-3)Gal(b1-4)GlcNAc(b1-4)Man(a1-6)]Man(b1-4)GlcNAc(b1-4)GlcNAc
In short: as §1

[37] = target: Neu5Ac(a2-3)Gal(b1-4)GlcNAc(b1-2)[Neu5Ac(a2-3)Gal(b1-4)GlcNAc(b1-6)]Man(a1-6)[Neu5Ac(a2-3)Gal(b1-4)GlcNAc(b1-2)Man(a1-3)]Man(b1-4)GlcNAc(b1-4)GlcNAc
In short: as §1

B1: LTL (Lotus tetragonolobus), P19664 (protein)
chain: VSFNYTEFKDDGSLILQGDAKIWTDGRLAMPTDPLVNNPKTTRSAGRALYATPVPIWDSATGNVASFVTSFNFLFVIRELKYTPTDGLVFFLAPVGTEIPSGSTGGFLGIFDGSNGFNQFVAVEFDSYHNIWDPKSLRSSHVGIDVNSIMSLKAVNWNRVSGSLEKATIIYDSQTNILSVVMTSQNGQITTIYGTIDLKTVLPEKVSVGFSATTGNPEREKHDIYSWSFTSTLKEPEEQA
B1 was tested, and the “glycan array binding signal (z-score)” value [1] was -0.138, the “glycan array binding signal (z-score)” value [2] was -0.125 and the “glycan array binding signal (z-score)” value [3] was -0.202. For the same binder, the “glycan array binding signal (z-score)” value [4] was -0.29, the “glycan array binding signal (z-score)” value [5] was -0.072 and the “glycan array binding signal (z-score)” value [6] was -0.26. The “glycan array binding signal (z-score)” value [7] was -0.094, the “glycan array binding signal (z-score)” value [8] was -0.292 and the “glycan array binding signal (z-score)” value [9] was -0.292. The “glycan array binding signal (z-score)” value [10] was -0.107, the “glycan array binding signal (z-score)” value [11] was 0.037 and the “glycan array binding signal (z-score)” value [12] was -0.354. For the same binder, the “glycan array binding signal (z-score)” value [13] was -0.099, the “glycan array binding signal (z-score)” value [14] was -0.076 and the “glycan array binding signal (z-score)” value [15] was -0.318. The “glycan array binding signal (z-score)” value [16] was -0.199, the “glycan array binding signal (z-score)” value [17] was -0.188 and the “glycan array binding signal (z-score)” value [18] was 0.17. For the same binder, the “glycan array binding signal (z-score)” value [19] was 0.289, the “glycan array binding signal (z-score)” value [20] was 0.005 and the “glycan array binding signal (z-score)” value [21] was 0.038. The “glycan array binding signal (z-score)” value [22] was -0.135, the “glycan array binding signal (z-score)” value [23] was -0.138 and the “glycan array binding signal (z-score)” value [24] was -0.084. The “glycan array binding signal (z-score)” value [25] was -0.277, the “glycan array binding signal (z-score)” value [26] was -0.123 and the “glycan array binding signal (z-score)” value [27] was -0.203. The “glycan array binding signal (z-score)” value [28] was -0.023, the “glycan array binding signal (z-score)” value [29] was -0.157 and the “glycan array binding signal (z-score)” value [30] was 0.022. For the same binder, the “glycan array binding signal (z-score)” value [31] was -0.322, the “glycan array binding signal (z-score)” value [32] was -0.261 and the “glycan array binding signal (z-score)” value [33] was -0.265. For the same binder, the “glycan array binding signal (z-score)” value [34] was -0.254, the “glycan array binding signal (z-score)” value [35] was -0.427 and the “glycan array binding signal (z-score)” value [36] was -0.255. The “glycan array binding signal (z-score)” value [37] was -0.31.
